# Experimental data taken from the supplement of paper PMC10037445.
# The full ranking holds about 2,900 compounds; the median of “NF-kB SEAP reporter activity, fold change vs agonist alone” is about 0.99, and the highest 2% start at about 2.6. This is one part of the list.
# What was measured:
# RAW-Dual [1] = assay: NF-kB SEAP reporter activity, fold change vs agonist alone; higher = enhanced NF-kB activity; conditions: library stock concentration (final ~1000-fold dilution): 10 mM
# Summary of the method: (§1)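 After 50 nL of library stock was delivered by pin tool to RAW-Dual macrophages (50,000 cells/well, DMEM, 384-well plates), a PRR agonist was added 1 h later and the plates were kept at 37 °C, 5% CO2. Twenty hours later, IRF was read from supernatant by QuantiLuc luminescence and NF-κB by QuantiBlue absorbance at 620 nm. Reporter activity is stated as fold change over agonist-alone wells. Wells with IncuCyte confluency under 70% of agonist controls in both mask sets were counted as cytotoxic.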
# RAW-Dual [2] = assay: NF-kB SEAP reporter activity, fold change vs agonist alone; cytotoxicity flag (confluency mask): not cytotoxic; higher = enhanced NF-kB activity
# Summary of the method: as §1
# RAW-Dual [3] = assay: NF-kB SEAP reporter activity, fold change vs agonist alone; cytotoxicity flag (confluency mask): cytotoxic (confluency <70% of control); higher = enhanced NF-kB activity
# Summary of the method: as §1
# [4] = cytotoxicity flag (confluency mask): not cytotoxic, agonist: Imiquimod (TLR7) […]
# [5] = cytotoxicity flag (confluency mask): not cytotoxic, agonist: MPLA (TLR4) […]
# [6] = agonist: ODN 1826 (TLR9) 0.5 ug/mL
# [7] = agonist: Pam2CSK4 (TLR2/6) 0.1 ug/mL
# [8] = agonist: Pam3CSK4 (TLR2/1) 0.1 ug/mL
smiles,measurement,setting,value
Fc1ccc2[nH]ccc2c1-c1nc(N2CCOCC2)c2sc(CN3CCN(CC4CC4)CC3)cc2n1,NF-kB SEAP reporter activity,RAW-Dual [1]; [4],0.944
same,NF-kB SEAP reporter activity,RAW-Dual [1]; [5],1.25
Fc1ccc2[nH]ccc2c1-c1nc(N2CCOCC2)c2sc(CN3CCN(CC4CC4)CC3)cc2n1 (library stock concentration (final ~1000-fold dilution): 10 mM),NF-kB SEAP reporter activity,RAW-Dual [2]; agonist: LPS (TLR4) 0.1 ug/mL,2.9
same,NF-kB SEAP reporter activity,RAW-Dual [2]; [6],0.272
same,NF-kB SEAP reporter activity,RAW-Dual [2]; [7],1.03
same,NF-kB SEAP reporter activity,RAW-Dual [2]; [8],0.935
Cc1ccc(NC(=O)Nc2cc(C(F)(F)F)ccc2F)cc1Nc1ccc2c(c1)NC(=O)/C2=C\c1ccc[nH]1 (library stock concentration (final ~1000-fold dilution): 10 mM),NF-kB SEAP reporter activity,RAW-Dual [2]; agonist: LPS (TLR4) 0.1 ug/mL,0.677
same,NF-kB SEAP reporter activity,RAW-Dual [2]; [6],0.817
same,NF-kB SEAP reporter activity,RAW-Dual [2]; [7],0.337
same,NF-kB SEAP reporter activity,RAW-Dual [2]; [8],0.197
Cc1ccc(NC(=O)Nc2cc(C(F)(F)F)ccc2F)cc1Nc1ccc2c(c1)NC(=O)/C2=C\c1ccc[nH]1,NF-kB SEAP reporter activity,RAW-Dual [1]; [4],0.943
same,NF-kB SEAP reporter activity,RAW-Dual [1]; [5],0.689
CNC(=O)c1ccccc1Sc1ccc2c(/C=C/c3ccccn3)n[nH]c2c1 (library stock concentration (final ~1000-fold dilution): 10 mM),NF-kB SEAP reporter activity,RAW-Dual [2]; agonist: LPS (TLR4) 0.1 ug/mL,0.907
same,NF-kB SEAP reporter activity,RAW-Dual [2]; [6],0.847
same,NF-kB SEAP reporter activity,RAW-Dual [2]; [7],0.774
same,NF-kB SEAP reporter activity,RAW-Dual [2]; [8],0.757
CNC(=O)c1ccccc1Sc1ccc2c(/C=C/c3ccccn3)n[nH]c2c1,NF-kB SEAP reporter activity,RAW-Dual [1]; [4],0.538
same,NF-kB SEAP reporter activity,RAW-Dual [1]; [5],1.04
S=C=Nc1cccc(NC(=S)NCCCCNC(=S)Nc2cccc(N=C=S)c2)c1,NF-kB SEAP reporter activity,RAW-Dual [1]; [4],1.22
same,NF-kB SEAP reporter activity,RAW-Dual [1]; [5],1.1
S=C=Nc1cccc(NC(=S)NCCCCNC(=S)Nc2cccc(N=C=S)c2)c1 (library stock concentration (final ~1000-fold dilution): 10 mM),NF-kB SEAP reporter activity,RAW-Dual [2]; agonist: LPS (TLR4) 0.1 ug/mL,1.33
same,NF-kB SEAP reporter activity,RAW-Dual [2]; [6],0.977
same,NF-kB SEAP reporter activity,RAW-Dual [2]; [7],1.02
same,NF-kB SEAP reporter activity,RAW-Dual [2]; [8],0.977
CCOc1cc(N2CCC(O)CC2)ccc1Nc1ncc2c(n1)N(C)c1ccccc1C(=O)N2C (library stock concentration (final ~1000-fold dilution): 10 mM),NF-kB SEAP reporter activity,RAW-Dual [2]; agonist: LPS (TLR4) 0.1 ug/mL,3.72
O=C1c2ccccc2-c2n[nH]c3cccc1c23,NF-kB SEAP reporter activity,RAW-Dual [1]; [4],0.337
same,NF-kB SEAP reporter activity,RAW-Dual [1]; [5],0.837
O=C1c2ccccc2-c2n[nH]c3cccc1c23 (library stock concentration (final ~1000-fold dilution): 10 mM),NF-kB SEAP reporter activity,RAW-Dual [2]; agonist: LPS (TLR4) 0.1 ug/mL,0.376
same,NF-kB SEAP reporter activity,RAW-Dual [2]; [6],0.316
same,NF-kB SEAP reporter activity,RAW-Dual [2]; [7],0.149
same,NF-kB SEAP reporter activity,RAW-Dual [2]; [8],0.192
CC(C)CC(NC(=O)CNC(=O)c1cc(Cl)ccc1Cl)B(O)O (stereo not given) (library stock concentration (final ~1000-fold dilution): 10 mM),NF-kB SEAP reporter activity,RAW-Dual [2]; agonist: LPS (TLR4) 0.1 ug/mL,0.683
same,NF-kB SEAP reporter activity,RAW-Dual [2]; [6],0.942
same,NF-kB SEAP reporter activity,RAW-Dual [2]; [7],1.07
same,NF-kB SEAP reporter activity,RAW-Dual [2]; [8],0.768
CC(C)CC(NC(=O)CNC(=O)c1cc(Cl)ccc1Cl)B(O)O (stereo not given),NF-kB SEAP reporter activity,RAW-Dual [1]; [4],0.894
same,NF-kB SEAP reporter activity,RAW-Dual [1]; [5],0.931
CNC(=O)c1ccc(N2C(=S)N(c3cnc(C#N)c(C(F)(F)F)c3)C(=O)C23CCC3)cc1F (library stock concentration (final ~1000-fold dilution): 10 mM),NF-kB SEAP reporter activity,RAW-Dual [2]; agonist: LPS (TLR4) 0.1 ug/mL,0.895
same,NF-kB SEAP reporter activity,RAW-Dual [2]; [6],1
same,NF-kB SEAP reporter activity,RAW-Dual [2]; [7],0.884
same,NF-kB SEAP reporter activity,RAW-Dual [2]; [8],1.13
CNC(=O)c1ccc(N2C(=S)N(c3cnc(C#N)c(C(F)(F)F)c3)C(=O)C23CCC3)cc1F,NF-kB SEAP reporter activity,RAW-Dual [1]; [4],0.992
same,NF-kB SEAP reporter activity,RAW-Dual [1]; [5],0.953
Cl.N=c1ccn2c(n1)OC1C(O)C(CO)OC12 (stereo not given) (library stock concentration (final ~1000-fold dilution): 10 mM),NF-kB SEAP reporter activity,RAW-Dual [2]; agonist: LPS (TLR4) 0.1 ug/mL,1.33
same,NF-kB SEAP reporter activity,RAW-Dual [2]; [6],1.89
same,NF-kB SEAP reporter activity,RAW-Dual [2]; [7],1.4
same,NF-kB SEAP reporter activity,RAW-Dual [2]; [8],1.83
Cl.N=c1ccn2c(n1)OC1C(O)C(CO)OC12 (stereo not given),NF-kB SEAP reporter activity,RAW-Dual [1]; [4],1.8
same,NF-kB SEAP reporter activity,RAW-Dual [1]; [5],1.42
C[C@@H]1O[C@@H](O[C@@H]2[C@@H](O)[C@H](OCCc3ccc(O)c(O)c3)O[C@H](CO[C@@H]3O[C@H](CO)[C@@H](O)[C@H](O)[C@H]3O)[C@H]2OC(=O)/C=C/c2ccc(O)c(O)c2)[C@H](O)[C@H](O)[C@H]1O (library stock concentration (final ~1000-fold dilution): 10 mM),NF-kB SEAP reporter activity,RAW-Dual [2]; agonist: LPS (TLR4) 0.1 ug/mL,1.05
same,NF-kB SEAP reporter activity,RAW-Dual [2]; [6],1.03
same,NF-kB SEAP reporter activity,RAW-Dual [2]; [7],1.04
same,NF-kB SEAP reporter activity,RAW-Dual [2]; [8],0.936
C[C@@H]1O[C@@H](O[C@@H]2[C@@H](O)[C@H](OCCc3ccc(O)c(O)c3)O[C@H](CO[C@@H]3O[C@H](CO)[C@@H](O)[C@H](O)[C@H]3O)[C@H]2OC(=O)/C=C/c2ccc(O)c(O)c2)[C@H](O)[C@H](O)[C@H]1O,NF-kB SEAP reporter activity,RAW-Dual [1]; [4],0.893
same,NF-kB SEAP reporter activity,RAW-Dual [1]; [5],0.966
CN1CCN(c2ccc(C(=O)Nc3n[nH]c4ccc(Cc5cc(F)cc(F)c5)cc34)c(NC3CCOCC3)c2)CC1 (library stock concentration (final ~1000-fold dilution): 10 mM),NF-kB SEAP reporter activity,RAW-Dual [3]; agonist: LPS (TLR4) 0.1 ug/mL,0.334
same,NF-kB SEAP reporter activity,RAW-Dual [3]; [6],0.21
same,NF-kB SEAP reporter activity,RAW-Dual [3]; [7],0.225
same,NF-kB SEAP reporter activity,RAW-Dual [3]; [8],0.141
CN1CCN(c2ccc(C(=O)Nc3n[nH]c4ccc(Cc5cc(F)cc(F)c5)cc34)c(NC3CCOCC3)c2)CC1,NF-kB SEAP reporter activity,"RAW-Dual [1]; cytotoxicity flag (confluency mask): cytotoxic (confluency <70% of control), agonist: Imiquimod (TLR7) […]",0.608
same,NF-kB SEAP reporter activity,"RAW-Dual [1]; cytotoxicity flag (confluency mask): cytotoxic (confluency <70% of control), agonist: MPLA (TLR4) […]",0.545
Cc1nc(Nc2ccc(F)cc2)nc(N2CCc3ccccc3C2C)c1C.Cl (stereo not given) (library stock concentration (final ~1000-fold dilution): 10 mM),NF-kB SEAP reporter activity,RAW-Dual [2]; agonist: LPS (TLR4) 0.1 ug/mL,1.09
same,NF-kB SEAP reporter activity,RAW-Dual [2]; [6],1.17
same,NF-kB SEAP reporter activity,RAW-Dual [2]; [7],0.533
same,NF-kB SEAP reporter activity,RAW-Dual [2]; [8],0.376
Cc1nc(Nc2ccc(F)cc2)nc(N2CCc3ccccc3C2C)c1C.Cl (stereo not given),NF-kB SEAP reporter activity,RAW-Dual [1]; [5],1.23
CN1C(=N)NC(C)(c2cc(NC(=O)c3ccc(F)cn3)ccc2F)CS1(=O)=O.O=C(O)C(F)(F)F (stereo not given) (library stock concentration (final ~1000-fold dilution): 10 mM),NF-kB SEAP reporter activity,RAW-Dual [2]; agonist: LPS (TLR4) 0.1 ug/mL,0.826
same,NF-kB SEAP reporter activity,RAW-Dual [2]; [6],0.731
same,NF-kB SEAP reporter activity,RAW-Dual [2]; [7],0.823
same,NF-kB SEAP reporter activity,RAW-Dual [2]; [8],0.856
CN1C(=N)NC(C)(c2cc(NC(=O)c3ccc(F)cn3)ccc2F)CS1(=O)=O.O=C(O)C(F)(F)F (stereo not given),NF-kB SEAP reporter activity,RAW-Dual [1]; [4],0.873
same,NF-kB SEAP reporter activity,RAW-Dual [1]; [5],0.781
COc1ccc2[nH]c(S(=O)Cc3ncc(C)c(OC)c3C)nc2n1 (stereo not given) (library stock concentration (final ~1000-fold dilution): 10 mM),NF-kB SEAP reporter activity,RAW-Dual [2]; agonist: LPS (TLR4) 0.1 ug/mL,1.09
same,NF-kB SEAP reporter activity,RAW-Dual [2]; [6],0.927
same,NF-kB SEAP reporter activity,RAW-Dual [2]; [7],1.04
same,NF-kB SEAP reporter activity,RAW-Dual [2]; [8],1.34
COc1ccc2[nH]c(S(=O)Cc3ncc(C)c(OC)c3C)nc2n1 (stereo not given),NF-kB SEAP reporter activity,RAW-Dual [1]; [4],0.965
same,NF-kB SEAP reporter activity,RAW-Dual [1]; [5],1.07
CS(=O)(=O)c1ccc(Oc2cc(F)cc(C#N)c2)c2c1C(O)C(F)(F)C2 (stereo not given) (library stock concentration (final ~1000-fold dilution): 10 mM),NF-kB SEAP reporter activity,RAW-Dual [2]; agonist: LPS (TLR4) 0.1 ug/mL,1.07
same,NF-kB SEAP reporter activity,RAW-Dual [2]; [6],1.35
same,NF-kB SEAP reporter activity,RAW-Dual [2]; [7],1.01
same,NF-kB SEAP reporter activity,RAW-Dual [2]; [8],1.2
CS(=O)(=O)c1ccc(Oc2cc(F)cc(C#N)c2)c2c1C(O)C(F)(F)C2 (stereo not given),NF-kB SEAP reporter activity,RAW-Dual [1]; [4],1.03
same,NF-kB SEAP reporter activity,RAW-Dual [1]; [5],1.16
O=C(Nc1cccc(Cl)c1)Nc1ncc(CCNc2ncnc3ccsc23)s1,NF-kB SEAP reporter activity,RAW-Dual [1]; [4],0.259
same,NF-kB SEAP reporter activity,RAW-Dual [1]; [5],0.504
O=C(Nc1cccc(Cl)c1)Nc1ncc(CCNc2ncnc3ccsc23)s1 (library stock concentration (final ~1000-fold dilution): 10 mM),NF-kB SEAP reporter activity,RAW-Dual [2]; agonist: LPS (TLR4) 0.1 ug/mL,0.769
same,NF-kB SEAP reporter activity,RAW-Dual [2]; [6],0.415
same,NF-kB SEAP reporter activity,RAW-Dual [2]; [7],0.172
same,NF-kB SEAP reporter activity,RAW-Dual [2]; [8],0.268
